We go through 23 compounds from the supplement of paper PMC9588766.

Where “and” joins values, the source holds several entries; their conditions need not be identical. Equal values may be shown once. Where a name gives a salt, the structure may show the parent alone. Whole data set: some 1,900 compounds, median “cell viability of compound + 1 nM pemigatinib relative to pemigatinib-only (DMSO) wells” near 0.95, cut for the lowest 2% near 0.22. Some of the results follow.

This assay relates to PDC-DUC18828. In words: cell viability of compound + 1 nM pemigatinib relative to pemigatinib-only (DMSO) wells (fraction); PDC-DUC18828 is a patient-derived cholangiocarcinoma cell line; higher = less growth inhibition. As to conditions: first compound 1 µM; pemigatinib concentration 1 nM; 72 h. Here is the method:
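Selleck Bioactive library screen in the patient-derived FGFR2 fusion-positive ICC cell line PDC-DUC18828 (500 cells/well). Each compound was tested at 1 uM with 1 nM pemigatinib, in triplicate, for 72 h. Viability was read by CellTiter-Glo and normalised to plate DMSO controls. Value is the paper's averaged normalised viability.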
As for `CCOC(=O)c1ccc(N2NC(=O)C(=Cc3ccc([N+](=O)[O-])o3)C2=O)cc1` + CCN1C(=O)N(c2c(F)c(OC)cc(OC)c2F)Cc2cnc3[nH]c(CN4CCOCC4)cc3c21 [pemigatinib], the cell viability worked out at 0.941. Next, `CCNC(=O)c1noc(-c2cc(Cl)c(O)cc2O)c1-c1ccc(OC)cc1` + CCN1C(=O)N(c2c(F)c(OC)cc(OC)c2F)Cc2cnc3[nH]c(CN4CCOCC4)cc3c21 [pemigatinib]: 0.3; `CCN[C@H]1CN(CCCOC)S(=O)(=O)c2sc(S(N)(=O)=O)cc21` [Brinzolamide] + CCN1C(=O)N(c2c(F)c(OC)cc(OC)c2F)Cc2cnc3[nH]c(CN4CCOCC4)cc3c21 [pemigatinib]: 0.872; `CC(C)c1c(C(=O)Nc2ccccc2)c(-c2ccccc2)c(-c2ccc(F)cc2)n1CC[C@@H](O)C[C@@H](O)CC(=O)O` [Atorvastatin Calcium] + CCN1C(=O)N(c2c(F)c(OC)cc(OC)c2F)Cc2cnc3[nH]c(CN4CCOCC4)cc3c21 [pemigatinib]: 1.05. In the case of `CC(C)(C)c1cnc(CSc2cnc(NC(=O)C3CCNCC3)s2)o1` + CCN1C(=O)N(c2c(F)c(OC)cc(OC)c2F)Cc2cnc3[nH]c(CN4CCOCC4)cc3c21 [pemigatinib], the cell viability is 0.281. Turning to `COc1cc(Br)c(Nc2nc(-c3c(C)nc4ncccn34)cs2)c(Br)c1` + CCN1C(=O)N(c2c(F)c(OC)cc(OC)c2F)Cc2cnc3[nH]c(CN4CCOCC4)cc3c21 [pemigatinib], the cell viability was 0.466 and 0.376. Next, `COC(=O)Nc1nc2cc(C(=O)c3cccs3)ccc2[nH]1` [Nocodazole] + CCN1C(=O)N(c2c(F)c(OC)cc(OC)c2F)Cc2cnc3[nH]c(CN4CCOCC4)cc3c21 [pemigatinib]: 0.316; `O=C1NC(=O)C(c2cnc3ccccn23)=C1c1cn2c3c(cc(F)cc13)CN(C(=O)N1CCCCC1)CC2` + CCN1C(=O)N(c2c(F)c(OC)cc(OC)c2F)Cc2cnc3[nH]c(CN4CCOCC4)cc3c21 [pemigatinib]: 0.544; `O=C(NC[C@H](O)CN1CCc2ccccc2C1)c1cc(NC2COC2)ncn1` + CCN1C(=O)N(c2c(F)c(OC)cc(OC)c2F)Cc2cnc3[nH]c(CN4CCOCC4)cc3c21 [pemigatinib]: 0.878. Next, `COc1cc2ncnc(Sc3nnc(C)s3)c2cc1OC` + CCN1C(=O)N(c2c(F)c(OC)cc(OC)c2F)Cc2cnc3[nH]c(CN4CCOCC4)cc3c21 [pemigatinib]: 0.985; `Nc1[nH]cnc2ncnc1-2` [Adenine HCl] + CCN1C(=O)N(c2c(F)c(OC)cc(OC)c2F)Cc2cnc3[nH]c(CN4CCOCC4)cc3c21 [pemigatinib]: 0.954; `C[C@@H](NCCCc1cccc(C(F)(F)F)c1)c1cccc2ccccc12` [Cinacalcet HCl] + CCN1C(=O)N(c2c(F)c(OC)cc(OC)c2F)Cc2cnc3[nH]c(CN4CCOCC4)cc3c21 [pemigatinib]: 0.986.

Regarding `CC(=O)Nc1cccc(-n2c(=O)n(C3CC3)c(=O)c3c(Nc4ccc(I)cc4F)n(C)c(=O)c(C)c32)c1` + CCN1C(=O)N(c2c(F)c(OC)cc(OC)c2F)Cc2cnc3[nH]c(CN4CCOCC4)cc3c21 [pemigatinib], the cell viability came out at 0.717. For the compound `OC(Cn1cncn1)(Cn1cncn1)c1ccc(F)cc1F` [Fluconazole] + CCN1C(=O)N(c2c(F)c(OC)cc(OC)c2F)Cc2cnc3[nH]c(CN4CCOCC4)cc3c21 [pemigatinib], the cell viability amounted to 1.04. In the case of `NCCc1c[nH]cn1` [Histamine 2HCl] + CCN1C(=O)N(c2c(F)c(OC)cc(OC)c2F)Cc2cnc3[nH]c(CN4CCOCC4)cc3c21 [pemigatinib], the cell viability was 0.941. With `N=C(N)NC(=N)NCCc1ccccc1` [Phenformin HCl] + CCN1C(=O)N(c2c(F)c(OC)cc(OC)c2F)Cc2cnc3[nH]c(CN4CCOCC4)cc3c21 [pemigatinib], the cell viability was 0.952. Consider `CO[C@H]1/C=C/O[C@@]2(C)Oc3c(C)c(O)c4c(O)c(c(/C=N/N5CCN(C6CCCC6)CC5)c(O)c4c3C2=O)NC(=O)/C(C)=C\C=C\[C@H](C)[C@H](O)[C@@H](C)[C@@H](O)[C@@H](C)[C@H](OC(C)=O)[C@@H]1C` [Rifapentine] + CCN1C(=O)N(c2c(F)c(OC)cc(OC)c2F)Cc2cnc3[nH]c(CN4CCOCC4)cc3c21 [pemigatinib], for which the cell viability came to 0.966. Next, `CN1CCC(=C2c3ccccc3C=Cc3ccccc32)CC1` [Cyproheptadine HCl] + CCN1C(=O)N(c2c(F)c(OC)cc(OC)c2F)Cc2cnc3[nH]c(CN4CCOCC4)cc3c21 [pemigatinib]: 0.979. On to `CNC1CCCN(c2c(F)cc3c(=O)c(C(=O)O)cn(C4CC4)c3c2OC)C1` (stereo not drawn) [Balofloxacin] + CCN1C(=O)N(c2c(F)c(OC)cc(OC)c2F)Cc2cnc3[nH]c(CN4CCOCC4)cc3c21 [pemigatinib], for which the cell viability was determined as 1.05. As to `CC[C@H]1[C@@H](O)[C@@H]2[C@H](CC[C@]3(C)[C@@H]([C@H](C)CCC(=O)O)CC[C@@H]23)[C@@]2(C)CC[C@@H](O)C[C@@H]12` [Obeticholic Acid] + CCN1C(=O)N(c2c(F)c(OC)cc(OC)c2F)Cc2cnc3[nH]c(CN4CCOCC4)cc3c21 [pemigatinib], the cell viability amounted to 0.961. `C[C@@H](Oc1ccc2[nH]nc(/C=C/c3cnn(CCO)c3)c2c1)c1c(Cl)cncc1Cl` + CCN1C(=O)N(c2c(F)c(OC)cc(OC)c2F)Cc2cnc3[nH]c(CN4CCOCC4)cc3c21 [pemigatinib]: the cell viability turned out to be 0.232.

With `C[C@H]1O[C@H](O[C@H]2[C@H](O)[C@@H](O)[C@@H](O[C@H]3[C@H](O)[C@@H](O)C(O)O[C@@H]3CO)O[C@@H]2CO)[C@H](O)[C@@H](O)[C@@H]1N[C@H]1C=C(CO)[C@@H](O)[C@H](O)[C@H]1O` (stereo partly drawn) [Acarbose] + CCN1C(=O)N(c2c(F)c(OC)cc(OC)c2F)Cc2cnc3[nH]c(CN4CCOCC4)cc3c21 [pemigatinib], the cell viability amounted to 0.952. Next, `CC(C)(O)[C@H]1CC[C@@](C)([C@H]2[C@@H](O)C[C@@]3(C)[C@@H]4C[C@H](O[C@@H]5O[C@H](CO)[C@@H](O)[C@H](O)[C@H]5O)[C@H]5C(C)(C)[C@@H](O[C@@H]6OC[C@@H](O)[C@H](O)[C@H]6O)CC[C@@]56C[C@@]46CC[C@]23C)O1` [Astragaloside A] + CCN1C(=O)N(c2c(F)c(OC)cc(OC)c2F)Cc2cnc3[nH]c(CN4CCOCC4)cc3c21 [pemigatinib]: 0.913.
